These are yes or no findings as the source states them, for the method shown. Binding seen in cells or lysates may run through a third protein. Some results given as binding are weak or reduced against the parent protein; the word gives no strength.
Legend:
[1] = biological target: FLAG-tagged TAZ, wild type (amino acids 1-395) (UniProt Q9EPK5); assay: co-IP; 293T cells co-transfected with FLAG-TAZ constructs and c-Jun; lysis in RIPA buffer; immunoprecipitation with anti-FLAG antibodies, blot with TAZ and c-Jun antibodies
[2] = biological target: N-terminus-deleted TAZ (amino acids 164-395) (UniProt Q9EPK5); assay: as above
[3] = biological target: N-terminus-deleted TAZ (amino acids 124-395) (UniProt Q9EPK5); assay: as above
[4] = biological target: c-Jun (endogenous, mouse) (mouse (endogenous in C2C12 and in mouse muscle)) (UniProt P05627); assay: co-IP; endogenous proteins, C2C12 cell lysates; immunoprecipitation with IgG or c-Jun antibodies, blot with TAZ and c-Jun antibodies
[5] = biological target: c-Jun (endogenous, mouse) (mouse (endogenous in C2C12 and in mouse muscle)) (UniProt P05627); assay: co-IP; endogenous proteins in mouse muscle (Supplementary Fig. 10); precipitating antibody not told in the text shown
[6] = biological target: Tead4 (endogenous, mouse muscle) (mouse (endogenous in muscle)) (UniProt Q62296); assay: as above

Sequences of proteins named here, by UniProt entry; tags and fusion partners are left off. A change or cut given only in a name is not applied to a line headed by its entry. Residues count along the entry.
UniProt Q9EPK5: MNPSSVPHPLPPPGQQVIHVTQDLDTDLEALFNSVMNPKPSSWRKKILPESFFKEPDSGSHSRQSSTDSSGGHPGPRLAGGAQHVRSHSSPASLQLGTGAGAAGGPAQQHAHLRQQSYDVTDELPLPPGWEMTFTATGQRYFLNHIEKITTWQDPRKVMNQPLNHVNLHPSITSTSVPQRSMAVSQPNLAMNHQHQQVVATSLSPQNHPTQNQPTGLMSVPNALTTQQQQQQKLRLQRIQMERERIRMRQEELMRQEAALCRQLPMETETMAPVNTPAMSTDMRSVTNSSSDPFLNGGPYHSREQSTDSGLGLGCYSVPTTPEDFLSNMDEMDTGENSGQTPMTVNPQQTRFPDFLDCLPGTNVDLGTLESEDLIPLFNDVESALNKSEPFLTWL
N-terminus-deleted TAZ (amino acids 124-395): residues 124-395 of Q9EPK5
N-terminus-deleted TAZ (amino acids 164-395): residues 164-395 of Q9EPK5
UniProt P05627: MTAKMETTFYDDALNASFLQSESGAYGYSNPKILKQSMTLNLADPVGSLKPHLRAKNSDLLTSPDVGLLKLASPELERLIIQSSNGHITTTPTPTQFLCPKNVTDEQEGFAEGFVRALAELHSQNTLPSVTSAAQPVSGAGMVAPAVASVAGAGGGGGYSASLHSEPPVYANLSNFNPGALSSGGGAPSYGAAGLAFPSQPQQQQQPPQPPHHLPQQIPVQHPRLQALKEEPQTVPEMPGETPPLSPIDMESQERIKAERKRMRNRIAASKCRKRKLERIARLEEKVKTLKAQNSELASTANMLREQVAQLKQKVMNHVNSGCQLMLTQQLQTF
UniProt Q62296: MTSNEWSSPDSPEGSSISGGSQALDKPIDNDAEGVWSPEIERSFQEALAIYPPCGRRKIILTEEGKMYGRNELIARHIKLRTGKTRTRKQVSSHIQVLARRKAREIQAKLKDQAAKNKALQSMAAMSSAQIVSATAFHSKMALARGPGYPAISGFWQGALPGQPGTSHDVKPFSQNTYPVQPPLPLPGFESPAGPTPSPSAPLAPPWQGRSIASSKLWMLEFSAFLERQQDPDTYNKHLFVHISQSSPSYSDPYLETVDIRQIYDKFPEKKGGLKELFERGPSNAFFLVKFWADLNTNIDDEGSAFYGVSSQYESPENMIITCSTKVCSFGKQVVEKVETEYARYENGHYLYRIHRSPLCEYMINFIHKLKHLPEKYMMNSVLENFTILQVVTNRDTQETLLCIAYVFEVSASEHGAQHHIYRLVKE

Row | binding [1] | binding [2] | binding [3] | binding [4] | binding [5] | binding [6] | Substance
1 | binds | no binding | binds | – | – | – | c-Jun (ectopically expressed) (from UniProt P05627 1-334)
2 | – | – | – | binds | binds | binds | TAZ (endogenous, mouse) (from UniProt Q9EPK5 1-395)

Source: publication PMC6345998
